Test results reported in PubChem BioAssay AID588754 (Broad Institute, 2011).
The source holds more than one record for some entries. This is not the full list of results. The source may hold further records. The values listed for one entry are repeated measurements (runs, samples, wells, individuals or studies). What stands in brackets tells the records apart. Letters count within one entry.

Molecular target: Scavenger receptor class B member 1 (Mus musculus) (UniProt Q61009)
Assay: SR-BI-mediated DiI-HDL uptake inhibitors, dose response, ldlA[mSR-BI] CHO cells, powder samples, set 5 (AID 588754)
Conditions: DiI-HDL uptake fluorescence, 3 h
Summary of the method: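 Test system: LDL receptor-deficient CHO ldlA cells overexpressing murine SR-BI / Medium: Ham's F12 with fatty acid-free BSA and HEPES / Also added: DiI-labeled HDL at 10 µg/mL final / Times: 3 h exposure to compound plus DiI-HDL at 37 °C / Technique: DiI fluorescence, 550 nm excitation, 595 nm emission / Read-out basis: HDL uptake fluorescence, decrease meaning inhibition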

UniProt Q61009, sequence (Q61009 whole entry, looked up): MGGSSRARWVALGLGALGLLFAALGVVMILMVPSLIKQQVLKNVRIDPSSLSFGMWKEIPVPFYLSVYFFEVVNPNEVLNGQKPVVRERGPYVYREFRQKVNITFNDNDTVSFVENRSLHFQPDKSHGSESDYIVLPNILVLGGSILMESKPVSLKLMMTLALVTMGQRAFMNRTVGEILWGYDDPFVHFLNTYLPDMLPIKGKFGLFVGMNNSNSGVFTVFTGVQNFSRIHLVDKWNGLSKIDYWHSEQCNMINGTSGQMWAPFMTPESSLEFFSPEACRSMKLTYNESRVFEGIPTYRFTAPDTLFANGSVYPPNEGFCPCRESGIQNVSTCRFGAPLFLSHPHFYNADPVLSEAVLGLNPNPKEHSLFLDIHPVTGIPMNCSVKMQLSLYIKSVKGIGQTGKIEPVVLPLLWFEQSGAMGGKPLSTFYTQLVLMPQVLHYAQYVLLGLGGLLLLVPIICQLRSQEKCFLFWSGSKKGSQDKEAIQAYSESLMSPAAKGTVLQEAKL

CCC(=O)N1CCc2cc(-c3csc(NC(=O)c4ccco4)n3)ccc21
AC50: 18.1 nM [sample A] and 974 nM [sample B]
